In paper PMC4981022:
These are yes or no findings as the source states them, for the method shown. In cells and extracts the contact can be indirect. Some binding calls cover weakened binding; strength is not graded here. Where a sequence is shown, tags or fusion partners need not be part of it.

Chains of the proteins cited; added tags and fusions are not shown. Lines headed by an entry give the natural chain unless they say otherwise; changes in a name come on top.
UniProt O75865: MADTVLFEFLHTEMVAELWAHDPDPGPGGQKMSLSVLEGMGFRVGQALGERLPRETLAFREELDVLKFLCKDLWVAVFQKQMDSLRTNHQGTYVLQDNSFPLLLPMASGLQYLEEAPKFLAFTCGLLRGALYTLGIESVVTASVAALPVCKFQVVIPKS

How the values were obtained:
EYFP-WWOX [1] = target: T1, EYFP-WWOX (UniProt Q9NZC7); experiment: FRET or BRET; FRET microscopy of living COS7 cells co-transfected with ECFP- and EYFP-tagged constructs, without stimulation; excitation 440 nm, emission 535 nm; binding given as FRETc
T1 sequence: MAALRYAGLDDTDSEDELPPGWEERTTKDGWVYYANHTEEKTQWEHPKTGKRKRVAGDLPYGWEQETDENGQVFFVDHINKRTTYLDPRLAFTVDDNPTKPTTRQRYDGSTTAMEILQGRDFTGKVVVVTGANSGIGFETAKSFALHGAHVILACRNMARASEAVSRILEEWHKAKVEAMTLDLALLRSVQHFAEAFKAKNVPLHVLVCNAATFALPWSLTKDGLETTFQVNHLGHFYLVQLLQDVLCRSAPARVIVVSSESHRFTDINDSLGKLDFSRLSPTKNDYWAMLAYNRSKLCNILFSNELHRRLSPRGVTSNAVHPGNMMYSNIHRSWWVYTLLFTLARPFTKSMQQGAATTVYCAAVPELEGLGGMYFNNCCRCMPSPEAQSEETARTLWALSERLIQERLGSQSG

EYFP-WWOX [2] = target: T1, EYFP-WWOX; experiment: FRET or BRET; time-lapse FRET microscopy of living COS7 cells co-transfected with ECFP- and EYFP-tagged constructs, in the presence of TGF-β1 (5 ng/ml)
[3] = target: T2, WW domains of WWOX (aa 1-95), ECFP tag (UniProt Q9NZC7); experiment: FRET or BRET; FRET microscopy of living COS7 cells co-transfected with ECFP- and EYFP-tagged constructs, without stimulation; excitation 440 nm, emission 535 nm; binding given as FRETc
T2 sequence: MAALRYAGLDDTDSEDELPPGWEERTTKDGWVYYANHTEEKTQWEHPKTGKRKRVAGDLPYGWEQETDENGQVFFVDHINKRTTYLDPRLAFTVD

[4] = target: T3, C-terminal SDR domain/D3 tail of WWOX (aa 120-414), ECFP tag (UniProt Q9NZC7); experiment: as above
T3 sequence: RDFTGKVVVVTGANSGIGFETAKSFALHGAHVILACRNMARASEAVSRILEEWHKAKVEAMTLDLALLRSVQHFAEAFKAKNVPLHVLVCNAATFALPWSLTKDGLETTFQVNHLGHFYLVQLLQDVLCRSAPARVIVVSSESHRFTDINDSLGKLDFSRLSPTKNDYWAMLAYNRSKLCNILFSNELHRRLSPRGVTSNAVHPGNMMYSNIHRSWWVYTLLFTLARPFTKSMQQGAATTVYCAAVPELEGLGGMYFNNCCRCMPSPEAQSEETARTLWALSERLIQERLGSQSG

ECFP-WWOX [5] = target: T4, ECFP-WWOX (UniProt Q9NZC7); experiment: as above
T4 sequence: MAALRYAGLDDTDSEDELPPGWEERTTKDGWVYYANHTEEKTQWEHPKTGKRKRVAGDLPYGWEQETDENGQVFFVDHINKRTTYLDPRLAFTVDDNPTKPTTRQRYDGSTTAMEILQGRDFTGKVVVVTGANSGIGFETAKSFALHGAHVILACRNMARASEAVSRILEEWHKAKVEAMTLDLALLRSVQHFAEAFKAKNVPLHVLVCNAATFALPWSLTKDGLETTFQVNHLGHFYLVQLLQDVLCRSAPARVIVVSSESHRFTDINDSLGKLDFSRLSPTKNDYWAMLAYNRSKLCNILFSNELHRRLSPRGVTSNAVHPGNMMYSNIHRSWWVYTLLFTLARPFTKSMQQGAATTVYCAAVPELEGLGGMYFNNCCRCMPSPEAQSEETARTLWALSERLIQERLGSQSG

[6] = target: T2, WW domains of WWOX (aa 1-95), ECFP tag; experiment: FRET or BRET; time-lapse FRET microscopy of living COS7 cells co-transfected with ECFP- and EYFP-tagged constructs, in the presence of TGF-β1 (5 ng/ml)
[7] = target: T3, C-terminal SDR domain/D3 tail of WWOX (aa 120-414), ECFP tag; experiment: as above
ECFP-WWOX [8] = target: T4, ECFP-WWOX; experiment: as above
ECFP-TPC6AΔ (human) = ECFP-TPC6AΔ (human) (UniProt O75865); experiment: FRET or BRET; FRET microscopy of living COS7 cells co-transfected with ECFP- and EYFP-tagged constructs, without stimulation; excitation 440 nm, emission 535 nm; binding given as FRETc

With “ECFP-TPC6AΔ (from UniProt O75865-1 1-159)” the binding (EYFP-WWOX [1]) was “binds weakly” and the binding (EYFP-WWOX [2]) was “binds”.

For “EYFP-TPC6AΔ (from UniProt O75865-1 1-159)”, the binding [3] was “no binding (condition: without TGF-β1 stimulation)”, the binding [4] was “binds” and the binding (ECFP-WWOX [5]) was “binds”. For the same molecule, the binding [6] was “binds” and the binding [7] was “binds”.

With “EYFP-TPC6AΔ(S35G) (from UniProt O75865-1 1-159)” the binding (ECFP-WWOX [8]) was “binds”.

B1: EYFP-TIAF1 (protein, UniProt O95411 1-115)
chain: MSSPSSPFREQSFLCAAGDAGEESRVQVLKNEVRRGSPVLLGWVEQAYADKCVCGPSAPPAPTPPSLSQRVMCNDLFKVNPFQLQQFRADPSTASLLLCPGGLDHKLNLRGKAWG
With B1 the binding (ECFP-TPC6AΔ (human)) was “binds”.
